Measurements reported in article PMC4336329 (PLoS ONE, 2015).
About 2,200 (0.71%) of roughly 310,000 compounds showed an effect of 50% or more. The effect is printed as a negative number. This is one part of the list.

Biological target: human ether-à-go-go-related gene (hERG) potassium channel (human, UniProt Q12809)
Assay: primary screen, population patch clamp on CHO cells stably expressing hERG

Sequence of human ether-à-go-go-related gene (hERG) potassium channel (Q12809 whole entry, looked up): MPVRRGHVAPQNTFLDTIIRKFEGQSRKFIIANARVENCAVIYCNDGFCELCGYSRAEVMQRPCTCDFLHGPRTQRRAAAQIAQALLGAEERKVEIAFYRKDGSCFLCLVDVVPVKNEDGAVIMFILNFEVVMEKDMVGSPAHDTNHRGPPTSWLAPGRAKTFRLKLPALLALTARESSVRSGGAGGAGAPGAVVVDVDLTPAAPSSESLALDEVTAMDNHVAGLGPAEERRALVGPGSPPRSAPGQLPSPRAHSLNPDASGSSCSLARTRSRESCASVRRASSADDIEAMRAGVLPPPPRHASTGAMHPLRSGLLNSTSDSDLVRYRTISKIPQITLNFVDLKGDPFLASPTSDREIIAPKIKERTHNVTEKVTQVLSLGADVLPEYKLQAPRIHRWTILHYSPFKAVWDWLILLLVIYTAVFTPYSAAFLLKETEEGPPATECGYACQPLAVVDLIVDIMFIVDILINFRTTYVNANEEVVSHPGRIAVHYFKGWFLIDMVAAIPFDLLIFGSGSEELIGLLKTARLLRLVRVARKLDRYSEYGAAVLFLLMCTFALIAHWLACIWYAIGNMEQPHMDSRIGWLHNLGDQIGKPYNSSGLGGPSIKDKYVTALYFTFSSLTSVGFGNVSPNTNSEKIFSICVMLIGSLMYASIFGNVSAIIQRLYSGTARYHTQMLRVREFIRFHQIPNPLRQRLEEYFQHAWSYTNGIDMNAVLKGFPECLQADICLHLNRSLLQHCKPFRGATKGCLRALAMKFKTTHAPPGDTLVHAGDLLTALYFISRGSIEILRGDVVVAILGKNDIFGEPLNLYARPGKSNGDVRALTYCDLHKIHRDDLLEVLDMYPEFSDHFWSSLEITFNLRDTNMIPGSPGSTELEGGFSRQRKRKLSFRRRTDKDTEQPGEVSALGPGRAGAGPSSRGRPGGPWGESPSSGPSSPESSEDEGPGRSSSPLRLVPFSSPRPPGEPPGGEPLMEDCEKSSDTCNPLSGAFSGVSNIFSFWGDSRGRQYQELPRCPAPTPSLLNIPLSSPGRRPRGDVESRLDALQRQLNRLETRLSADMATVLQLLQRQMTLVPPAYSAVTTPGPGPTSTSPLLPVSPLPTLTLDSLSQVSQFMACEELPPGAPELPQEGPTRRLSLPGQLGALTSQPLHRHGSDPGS

Compound | hERG current change (%, negative = inhibition) at 1uM
Cc1cc(N2CCC(C)CC2)nc2ccc(N3C(=O)CCC3=O)cc12 | 9.64%
Cc1ccc(NC(=O)[C@H](Cc2ccccc2)NC(=O)[C@@H]2Cc3ccccc3CN2)c(C)c1 | 11.1%
O=C(Nc1ccc(Br)cc1)Nc1ccccc1F | 4.58%
O=C(NC1CCCC1)C(c1ccco1)N(C(=O)c1ccco1)c1ccccc1 (stereo not drawn) | 3.05%
Cn1c(SCC(=O)Nc2cc(S(=O)(=O)N3CCOCC3)ccc2N2CCOCC2)nnc1-c1ccncc1 | 12.1%
Cc1cc(C)n2nc(C(=O)OCC(=O)N(C)Cc3ccccc3)nc2n1 | 6.47%
O=C(c1cc([N+](=O)[O-])ccc1N1CCCCC1)N1CCCCC1 | -6.51%
COc1ccc(S(=O)(=O)NC(C)C(=O)NCc2cccnc2)cc1OC (stereo not drawn) | 11.7%
COc1ccccc1-n1c(CNC(=O)c2cccs2)n[nH]c1=S | 6.11%
CCN(CC)c1ccc(/C=N/NC(=O)C(O)c2ccccc2)cc1 (stereo not drawn) | -1.26%
COC(=O)Nc1nc2ccc(SC(C)C)cc2[nH]1 | 10.1%
CCOC(=O)C1C(=O)NC2(C)CC1c1cc(OC)ccc1O2 (stereo not drawn) | 14.1%
COc1ccc(C)cc1S(=O)(=O)N(C)CC(N)=O | 8.74%
CCn1c(=O)n(CC(=O)NCc2ccccc2OC)c(=O)c2ccccc21 | 8.78%
COc1ccccc1CNC(=O)c1ccc(-c2ccccc2Cl)o1 | 14%
Cc1cc(C)n(CC(=O)N/N=C/c2ccc(C)o2)n1 | -0.565%
COc1ccc(NC(=O)c2ccc3ccccc3c2)cc1 | 16.4%
CCN(CC)C(=O)c1ccc(NC(=O)c2cccc(S(=O)(=O)N3CCN(Cc4ccccc4)CC3)c2)cc1 | -10.7%
C=CCN1CC(c2nc3ccccc3n2Cc2ccccc2)CC1=O (stereo not drawn) | 2.6%
Cc1ccc(-n2nc3c(c2NC(=O)c2c(F)cccc2Cl)CS(=O)(=O)C3)cc1C | -13.9%
COc1ccc(C(=O)O)cc1S(=O)(=O)Nc1cccc(C(F)(F)F)c1 | -4.34%
Cc1ccc(/C=N/NC(=O)CNC(=O)c2ccc(S(=O)(=O)N(C)C)cc2)cc1 | 14%
CC(NC(=O)c1ccc(Cl)s1)C1CCCO1 (stereo not drawn) | 15.6%

Compound | hERG current change (%, negative = inhibition) at 1uM
Cc1ccc(C=Nc2cc([N+](=O)[O-])ccc2C)s1 | 15.5%
CCCc1cc(C(N)=S)ccn1 | 10.8%
CCO[C@H]1c2c(ccc3ccc(=O)oc23)OC(C)(C)[C@@H]1O | 15.3%
CC(C)c1ccc(OCC(=O)NNC(=S)NC(=O)c2cccs2)c(Br)c1 | -2.15%
COc1ccc(/C=C2\SC(N3CCCCC3)=NC2=O)cc1OC | 1.43%
COc1ccc(OC)c(/C=C/C(=O)Nc2cccc(S(=O)(=O)N3CCCC3)c2)c1 | 4.01%
CCOC(=O)c1sc2nc3c(cc2c1N)COC(C)(C)C3 | 21%
COc1ccc(C2=NN(C(=O)CCC(=O)O)C(c3ccccc3F)C2)cc1 (stereo not drawn) | 3.64%
O=C(/C=C/c1ccccc1)NC(=S)NNS(=O)(=O)c1ccccc1 | 6.7%
O=S(=O)(NC1=NCCCCC1)c1ccccc1Cl | 13.6%
Cc1ccc(OCC(=O)Nn2cnnc2)c(Br)c1 | 0.167%
COC(=O)[C@H](CC(C)C)NS(=O)(=O)c1ccccc1 | 5.96%
Cc1ccc2c(CN3CCC(C)CC3)cc(=O)oc2c1 | -1.03%
Cc1ccc(C)c(N2CCN(C(=O)c3ccc(CS(=O)Cc4ccc(Cl)cc4)o3)CC2)c1 (stereo not drawn) | 11.6%
O=C(NCc1nc(-c2ccccc2)no1)c1cccs1 | 2.93%
Cc1ccc(Nc2nc(N)nc(CSCCO)n2)cc1 | 15.5%
Cc1c(Cl)cccc1-n1c(SCC(=O)N2CCC(C(=O)O)CC2)nc2ccccc2c1=O | 15.5%
CCOC(=O)C1CCN(C(=O)c2ccccc2N(C)S(=O)(=O)c2ccccc2)CC1 | 0.932%
Cc1ccc(F)cc1CNC(=O)c1cc(COc2ccc3ncccc3c2)on1 | 14.7%
COc1cc(CNCC2CCCO2)ccc1OCC(N)=O.Cl (stereo not drawn) | 7.9%
CCOC(=O)N1CCN(c2cc(NCCO)c([N+](=O)[O-])c3nonc23)CC1 | 14%
CCOc1ccc(CN2CCN(CC3CC3)CC2CCO)cc1 (stereo not drawn) | -20.7%
